{"source": "ChEMBL document CHEMBL4888484", "about": "“Replenishing the malaria drug discovery pipeline: Screening and hit evaluation of the MMV Hit Generation Library 1 (HGL1) against asexual blood stage Plasmodium falciparum ,using a nano luciferase reporter read-out” (2022)", "note": "Out of some 4,800 compounds screened, about 410 (8.5%) showed an effect of 50% or more. The list shows a part of the results.", "data": [{"system": "Plasmodium falciparum", "test": "Confirmatory screen in NF54 pLDH assay, in single point, at 2uM, 72h", "assay_type": "functional, Erythrocyte", "settings": "timepoint 72 hour", "units": {"% Inhibition": "%"}, "values": [{"molecule": "CCCCN(CC)CCNC(=O)C1CCN(C2=NS(=O)(=O)C(c3ccc(OC)cc3)=C2C)CC1", "% Inhibition": 39}, {"molecule": "CON(C)C[C@H](O)Cn1cc(Nc2ncnc3cc(F)ccc23)cn1", "% Inhibition": 5}, {"molecule": "CC1CCCCC1N(C)C(=O)c1cc2ccccc2c(=O)[nH]1", "note": "(stereo unspecified)", "% Inhibition": -14}, {"molecule": "O=C(NC1CCCC1)c1nc(C(=O)N2CCN(c3cccc(Cl)c3)CC2)cs1", "% Inhibition": -9}, {"molecule": "Fc1cccc(Cl)c1Cn1ccc(Nc2nnc(Cn3cc(Cl)cn3)s2)n1", "% Inhibition": -8}, {"molecule": "Cc1ccc(S(=O)(=O)c2c(NS(=O)(=O)c3ccc(F)cc3)n(CCc3ccccc3)c3nc4ccccc4nc23)cc1", "% Inhibition": 103}, {"molecule": "O=C1CCC(C(=O)NCC2CCCOC2)(c2ccccc2)CN1", "note": "(stereo unspecified)", "% Inhibition": -16}, {"molecule": "Cc1cc(C)n2c(-c3cccnc3)nnc2n1", "% Inhibition": 2}, {"molecule": "COC(=O)[C@@](c1cc(Cl)c(O)c(Cl)c1)(N1CCOCC1)C(F)(F)F", "% Inhibition": 14}, {"molecule": "COc1ccc(NC(=O)C2(N(Cc3ccccc3)C(=O)Cn3nnc4ccccc43)CCCCC2)cc1", "% Inhibition": 12}, {"molecule": "COc1cccc(CC(=O)N2CCc3nc(N4CCC(C)CC4)nc(Oc4ccccc4OC)c3C2)c1", "% Inhibition": 61}, {"molecule": "Cn1ncc(C(=O)CC#N)c1C(F)(F)F", "% Inhibition": -18}, {"molecule": "CCOC(=O)C1CN(S(=O)(=O)c2ccccc2)C1", "% Inhibition": -10}, {"molecule": "COc1ccccc1C1CC1c1nc(CC(=O)NC2CCCC2)no1", "note": "(stereo unspecified)", "% Inhibition": -5}, {"molecule": "O=C1CC(c2cccc(NC(=O)CCc3ccccn3)c2)CC(=O)N1", "% Inhibition": 12}, {"molecule": "COc1ccccc1[C@H]1CCN(S(=O)(=O)c2ccccc2)C1", "% Inhibition": -5}, {"molecule": "CCOc1cc(C(c2c(C)n(C)n(-c3ccccc3)c2=O)c2c(C)n(C)n(-c3ccccc3)c2=O)ccc1OCc1ccccc1", "% Inhibition": 38}, {"molecule": "COCC[C@@H](CO)NC(=O)NCc1cc2cc(F)ccc2s1", "% Inhibition": 4}, {"molecule": "NS(=O)(=O)c1cc(C(=O)N2CCc3ccccc3C2)cs1", "% Inhibition": 13}, {"molecule": "O=C(Cn1c(Cc2ccc(Cl)cc2)nc2ccccc21)Nc1ccccc1", "% Inhibition": 9}, {"molecule": "Cn1c(-c2ccc(Br)cc2)cn2cc(-c3ccc(Cl)cc3)nc12", "% Inhibition": -1}, {"molecule": "O=C(Nc1ccccc1Br)c1cc(-c2ccc3c(c2)CCO3)no1", "% Inhibition": 7}, {"molecule": "CCCCCC1CCC(c2ccc(-c3ccc(CC)cn3)cc2F)CC1", "note": "(stereo unspecified)", "% Inhibition": 7}, {"molecule": "O=C(Nc1ccc(C2(c3ccc(NC(=O)c4ccc(F)cc4)cc3)c3ccccc3C(=O)c3ccccc32)cc1)c1ccc(F)cc1", "% Inhibition": 31}, {"molecule": "COc1ccc2c(c1)CCc1c[nH]nc1-2", "% Inhibition": 0}, {"molecule": "Cc1nnc([C@@H]2COCCN2Cc2csc(C)c2)o1", "% Inhibition": 2}, {"molecule": "CC(C)(C)c1noc(OCc2cccc(C#N)c2)n1", "% Inhibition": 14}, {"molecule": "Cc1ccccc1CNC(=O)CN(C(C)C)C1CCOCC1", "% Inhibition": 28}, {"molecule": "COc1ccccc1N1CCN(CCC(=O)NC2CCCCC2)CC1", "% Inhibition": 11}, {"molecule": "Cc1ccc(S(=O)(=O)Nc2c(S(=O)(=O)c3ccc(C)cc3)c3nc4ccccc4nc3n2C[C@H]2CCCO2)cc1", "% Inhibition": 8}, {"molecule": "CC(=O)Nn1ccc2nc(N3CCOCC3)ncc2c1=O", "% Inhibition": 3}, {"molecule": "Cc1ccn(-c2cc(-c3cccs3)cc(-n3ccc(C)n3)n2)n1", "% Inhibition": 3}, {"molecule": "Cc1noc(Cn2c(=O)c3cc4c(cc3n(CC(=O)Nc3cccc(Cl)c3)c2=O)OCO4)n1", "% Inhibition": 7}, {"molecule": "CC1=NN(S(=O)(=O)c2ccc(F)cc2)C(=O)c2ccccc2O1", "% Inhibition": 5}, {"molecule": "Cc1ccc(C(=O)N[C@@H](C)CCc2ccccc2)cc1S(=O)(=O)N1CCN(C)CC1", "% Inhibition": -22}, {"molecule": "O=c1[nH]c2cc3c(cc2c(=O)n1CCc1nc(-c2ccccc2Br)no1)OCO3", "% Inhibition": 8}, {"molecule": "CC[C@H]1Cn2c(C(=O)N3CCN(c4ccccn4)CC3)cc3c(Cl)ccc(c32)O1", "% Inhibition": -6}, {"molecule": "COC(=O)C1=C(C(=O)OC)SC(=C2C(=S)C(C)(C)N(C(=O)c3cccnc3)c3c(C)cc(C)cc32)S1", "% Inhibition": 0}, {"molecule": "O=C(COc1ccc(Cl)cc1)N1CC(n2cnnc2C2CC2)C1", "% Inhibition": -4}, {"molecule": "Cc1nc2cc3c(cc2n1CC(=O)Nc1ccc(Cl)cc1)OCCCO3", "% Inhibition": 15}, {"molecule": "Cc1ccccc1[C@H]1CCN(c2ccc(NC(=O)C3CCCC3)c(C(=O)O)c2)C1", "% Inhibition": -3}, {"molecule": "O=C(Nc1nc2ccc(F)cc2s1)c1cccc2c(Br)cccc12", "% Inhibition": -9}, {"molecule": "Cc1cc(OCCOCCNCCN)cc(C(C)C)c1", "% Inhibition": 25}, {"molecule": "O=C(O)[C@H](Cc1ccccc1)N(C(=O)c1ccncc1)C1CC1", "% Inhibition": -3}, {"molecule": "Cn1nc2n(c1=O)CCN(S(=O)(=O)c1cccc3cccnc13)CC2", "% Inhibition": -5}, {"molecule": "CCN(C)S(=O)(=O)N1CCN(Cc2c(C)nc3n2CCCC3)CC1", "% Inhibition": -7}, {"molecule": "c1cnc(N2CCOCC2)c(CNc2cnc3ccccc3n2)c1", "% Inhibition": -7}, {"molecule": "CC(=O)c1cn(CC(=O)N2CCNC(=O)C2)c2ccccc12", "% Inhibition": 6}, {"molecule": "CN(Cc1nc2ccccc2c(=O)[nH]1)C(=O)c1ccc(N2CCCC2=O)cc1", "% Inhibition": 4}, {"molecule": "O=C(c1cncc(Br)c1)N1CC[C@H](c2nc(C3CCOCC3)no2)C1", "% Inhibition": 10}, {"molecule": "C[C@H]1CN(C(=O)CNc2ccccc2-c2ccccc2)CCO1", "% Inhibition": -20}]}]}
